Values joined by “and” are separate entries in the source; they are usually repeats but may differ in a detail not shown here. Identical values can stand only once. Out of some 420,000 compounds screened, about 50,000 (12%) were called active. This list was built around the results that the source calls inconclusive (neither active nor inactive); the mix of calls is not that of the screen. The call rests on the fitted dose curve; in most records, active means well fitted inhibition curve with a large enough effect; inconclusive means small, poorly fitted or top-dose-only effect; inactive means flat fitted curve, though single readings scatter. A potency beside an inconclusive call is a rough fit, not a confirmed value.
Test: qHTS for Inhibitors of human tyrosyl-DNA phosphodiesterase 1 (TDP1): qHTS in cells in presence of CPT; further: nearly all actives have a fitted effect of over 55% in size
Conditions: chicken DT40 Tdp1-/-;hTDP1 cells + 20 nM CPT, ATP luminescence, 48 h; activity change, negative = growth inhibition: at 46.2 µM (top of the series) unless noted
Method in brief: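 Chicken DT40 Tdp1-/- cells stably complemented with human TDP1 were seeded at 400 cells/well in medium containing 20 nM camptothecin, exposed to pin-transferred compounds, and grown at 37 °C for at least 48 hr. Viability was read as ATP luminescence.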
On the % scale 0 is the no-effect control and ±100 the full control effect; potency means the concentration at half of the fitted maximal effect; tags describe the fitted curve by direction and shape.

Row | Structure (SMILES) | Potency | activity change, negative = growth inhibition
1 | COc1ccccc1C(CNC(=O)CNC(=O)c1cccc(Cl)c1)N1CCCC1 (stereo not given) | inactive | 
2 | O=C(C[n+]1cccc2cccc(O)c21)c1ccc(F)cc1 | active: 7.08 µM | 
3 | COc1ccc(NC(=O)CSCCc2ccccn2)cc1OC | inactive | 
4 | COc1ccc(-c2nn(-c3ccccc3)cc2CNCCN2CCOC2=O)c(F)c1 | inconclusive: 32.6 µM [inhibitor, partial curve, poor fit] | 
5 | Cc1cccc(-c2noc(-c3ccc(NCC4CCCO4)c([N+](=O)[O-])c3)n2)c1 (stereo not given) | inconclusive: 5.8 µM [inhibitor, partial curve] | 
6 | CCOC(=O)c1c(C)n(-c2ccccc2)c2ccc(OC(=O)c3ccc(OCC)c(OCC)c3)cc12 | inconclusive: 29.1 µM [inhibitor, single point] | 
7 | COc1ccccc1-c1oc2ccccc2c1C#CC(C)(C)O | inconclusive: 23.1 µM [inhibitor, single point] | 
8 | COc1cc(C2C3C(=O)N(Cc4ccccc4)C(=O)C3ON2c2ccccc2)cc(OC)c1O (stereo not given) | inconclusive: 29.1 µM [inhibitor, single point] | 
9 | C[C@@H]1CN([C@@H](C)CO)S(=O)(=O)c2ccc(Br)cc2O[C@H]1CN(C)C(=O)c1ccccc1 | inconclusive: 18.4 µM [inhibitor, single point] | 
10 | COc1cc(SC)ccc1C(=O)Nc1c(C)cccc1C | inconclusive: 29.1 µM [inhibitor, single point] | 
11 | CCOC(=O)c1c(C)oc2c1c(CN1CCN(C(=O)OCC)CC1)c(O)c1ccccc12 | inconclusive: 29.1 µM [inhibitor, single point] | 
12 | COc1cccc(CC2(CO)CCCN(Cc3cn[nH]c3-c3cc(C)ccc3C)C2)c1 (stereo not given) | inconclusive: 32.6 µM [inhibitor, single point] | 
13 | CN(C(=O)c1ccc2c(c1)N(Cc1ccccc1F)C(=O)c1ccccc1S2)C1CCCCC1 | inconclusive: 23.1 µM [inhibitor, single point] | 
14 | CCS(=O)(=O)N1CCCC(C(=O)NC2CCC(C)CC2)C1 (stereo not given) | inactive | 
15 | Cc1ccc(NC(=S)NNC(C)(C)C)cc1 | inactive | 
16 | CC(C)(C)C(=O)NC(=S)NNC(=O)C(c1ccccc1)c1ccccc1 | active: 4.61 µM | 
17 | C=CCn1c(=O)c(C(=O)Nc2cc(C)ccn2)c(O)c2ccccc21 | active: 29.1 µM | 
18 | Cc1c(NC(=O)CSc2nnc(-c3ccncc3)n2C)c(=O)n(-c2ccccc2)n1C | inactive | 
19 | Cc1ccc(OCCC(=O)OCC(=O)Nc2ccc(N3CCOCC3)cc2)cc1 | inactive | 
20 | Cc1cc2c(cc1C)-c1nnnn1C(N1CCCC1)C(=O)N2 (stereo not given) | inconclusive: 29.1 µM [inhibitor, single point] | 
21 | Cc1ccc(-c2nnc(Nc3ccc(Cl)cc3)c3ccccc23)cc1S(=O)(=O)N1CCOCC1 | active: 13 µM | 
22 | Cc1ccc(OCC(=O)Nc2cc(S(=O)(=O)N3CCCCC3)ccc2N2CCN(C)CC2)c(C)c1 | active: 14.6 µM | 
23 | CC(C(=O)Nc1ccncc1)(c1ccccc1)c1ccccc1 | inactive | 
24 | COc1ccccc1C(=O)OCC(=O)N1CCC(Cc2ccccc2)CC1 | inconclusive: 14.6 µM [inhibitor, partial curve] | 

Row | Structure (SMILES) | Potency | activity change, negative = growth inhibition
25 | O=C(CCN1CCCCC1)N=Nc1c(O)[nH]c2ccccc12 | inconclusive: 18.4 µM [inhibitor, single point] | 
26 | CCOc1cc(C(=O)N2CCC(CC3CC(c4cccc(Br)c4)=NO3)(C(=O)NCC3CCCCC3)CC2)cc(OCC)c1OCC (stereo not given) | inconclusive: 29.1 µM [inhibitor, single point] | 
27 | Cc1ccc[n+](CC(=O)c2ccc(-c3ccccc3)cc2)c1 | inactive | 
28 | CC(Sc1n[nH]c(N)n1)c1nc2scc(-c3cccs3)c2c(=O)[nH]1 (stereo not given) | inconclusive: 20.6 µM [inhibitor, partial curve] | 
29 | CCN(CC)CCCC(C)Nc1nccc2cccc(Cl)c12 (stereo not given) | inconclusive: 11.6 µM [inhibitor, single point] | 
30 | CC(OC(=O)CCc1cc(C(C)(C)C)c(O)c(C(C)(C)C)c1)C(=O)NC1CC1 (stereo not given) | inconclusive: 29.1 µM [inhibitor, single point] | 
31 | COc1ccc(C(=O)/C=C2/C(=O)Nc3ccccc32)cc1 | active: 9.2 µM | 
32 | O=C(Cn1cnc(S(=O)(=O)N2CCCC2)c1)Nc1ccccc1 |  | inconclusive: -33.3% [inhibitor]
33 | Cc1ccc(C)c(N2CCN(CCCc3ccccc3)CC2)c1 | active: 20.6 µM | 
34 | COC(=O)c1c(-c2c(Cl)cccc2Cl)noc1NC(=O)NN1CCCCC1 | inconclusive: 10.3 µM [inhibitor, single point] | 
35 | O=C(C1CCN(c2ccc(N3CCOCC3)nn2)CC1)N1CCc2ccccc2C1 | inconclusive: 20.6 µM [inhibitor, partial curve] | 
36 | Cc1cc(Nc2cc(Cl)cc(Cl)c2)nc(N)n1 | inconclusive: 25.9 µM [inhibitor, single point] | 
37 | Cc1cccc(N2CCN(C(=O)c3c(C)oc4nc(C)nc(N5CCCC5)c34)CC2C)c1 (stereo not given) | inconclusive: 16.4 µM [inhibitor, single point] | 
38 | O=C(CCc1ccccc1)OCCN1CCOCC1 | inactive | 
39 | CCOc1ccc(CCNC(=O)C(C)n2nc(C)n3c(cc4occc43)c2=O)cc1OCC (stereo not given) | inconclusive: 0.58 µM [inhibitor, partial curve] | 
40 | CCC(=O)Nc1nnc(-c2ccccn2)o1 | inactive | 
41 | COc1ccc(CNC(=O)CCc2nc3cccnc3n2Cc2ccccc2)cc1 | inconclusive: 29.1 µM [inhibitor, single point] | 
42 | O=C(NCc1ccco1)C1CC(c2ccc(Cl)cc2)=NO1 (stereo not given) | inconclusive: 16.4 µM [inhibitor, partial curve] | 
43 | CCCN(CCC)Cc1c(C(=O)N/N=C/C(C)=C\c2ccccc2)nnn1-c1nonc1N | active: 16.4 µM | 
44 | CC(C)C1CCN(C(=O)C2CCC(=O)N(C3CCCCCC3)C2)CC1 (stereo not given) | inconclusive: 29.1 µM [inhibitor, single point] | 
45 | NS(=O)(=O)c1ccc(CCNc2nn3c(-c4cccc(OC(F)(F)F)c4)cnc3s2)cc1 | active: 11.6 µM | 
46 | COc1cccc(-n2c(SCC(=O)N3CCCCC3)nc3c([nH]c4ccccc43)c2=O)c1 | inconclusive: 16.4 µM [inhibitor, partial curve] and inconclusive: 16.4 µM [inhibitor, single point] | 
47 | CCc1nc(SCC(=O)NNC(=O)c2ccc(OC)cc2)c2ccccc2n1 | inconclusive: 29.1 µM [inhibitor, single point] | 
48 | NC(=O)c1nsc(C(=O)N(CC(=O)NCc2ccc3c(c2)OCO3)C2CCCC2)c1N | inactive | 

Row | Structure (SMILES) | Potency | activity change, negative = growth inhibition
49 | CC(NC(=O)CCc1nnc(-c2ccc(-c3ccccc3)cc2)o1)c1nc2ccccc2[nH]1 (stereo not given) | active: 18.4 µM | 
50 | O=C(Nc1ccc(F)c(F)c1)c1oc2ccccc2c1NC(=O)C1CCCO1 (stereo not given) | inconclusive: 14.6 µM [inhibitor, partial curve, poor fit] | 
51 | COc1ccc(-c2ccc3c(c2)S(=O)(=O)c2cccc(C(=O)NC[C@@H]4CCCO4)c2C3=O)cc1OC | inconclusive: 14.6 µM [inhibitor, partial curve] | 
52 | CC1CCC(N2CC(=O)N(C3CCCC3)C(c3ccc(Cl)cc3)C2=O)CC1 (stereo not given) | inconclusive: 29.1 µM [inhibitor, single point] | 
53 | O=C(N/N=C/c1ccc(F)cc1)c1ccncc1 | inactive | 
54 | CCOC(=O)C(C(C)C)C(N)Cc1ccc(F)cc1 (stereo not given) | inactive | 
55 | O=C(NNc1c2ccccc2nc2ccccc12)C(O)c1ccccc1 (stereo not given) | inconclusive: 16.4 µM [inhibitor, single point] | 
56 | Cc1ccc(C(=O)N2CCc3cc4c(cc3C2C)OCCCO4)cc1 (stereo not given) | active: 23.1 µM | 
57 | Cc1ccc(C(=O)NCC(=O)NCc2cc(=O)n(C)c(=O)n2C)cc1 | inconclusive: 18.4 µM [inhibitor, single point] | 
58 | O=C(CCNC(=O)c1ccccc1Cl)Nc1ccc(S(=O)(=O)Nc2nccs2)cc1 | inactive | 
59 | COc1cc(-c2nc(-c3ccccc3)c(-c3cccs3)[nH]2)cc(OC)c1O | inconclusive: 29.1 µM [inhibitor, single point] | 
60 | CCc1nc2ccc(C(=O)Nc3ccc(OC)c(OC)c3)cn2c1N(C)CCC(C)C | inconclusive: 25.9 µM [inhibitor, single point] | 
61 | O=S(=O)(/N=C(/Nc1cccc2ccccc12)c1ccccc1)c1ccc(F)cc1 | inconclusive: 32.6 µM [inhibitor, single point] | 
62 | C=CCNC(=O)c1ccc(N(Cc2ccc(Cl)cc2)S(C)(=O)=O)cc1 | inactive | 
63 | COc1ccc(NC(=O)c2c(N)c(C(=O)c3ccc(C)cc3)n3ccccc23)cc1OC | inconclusive: 23.1 µM [inhibitor, partial curve] | 
64 | COc1cccc(-n2c(Cc3cc(=O)[nH]c(=O)[nH]3)nnc2SCc2cccc(C(F)(F)F)c2)c1 | inactive | 
65 | COc1ccccc1-c1csc(C(C)(O)c2ccccc2)n1 (stereo not given) | active: 14.6 µM | 
66 | CCOC(=O)C1(Cc2ccccc2)CCCN(Cc2ccccn2)C1 (stereo not given) | inconclusive: 18.4 µM [inhibitor, single point] | 
67 | Nc1nc(=O)n(C2CCC(CO)O2)cc1F (stereo not given) | inconclusive: 11.8 µM [inhibitor, single point] | 
68 | COCCn1c(SCC(=O)N2CC(=O)Nc3ccccc32)nc2ccccc21 | inactive | 
69 | O=C1c2c(-c3ccc(Br)cc3)noc2CCN1Cc1cn(Cc2ccccc2)nn1 | inconclusive: 29.1 µM [inhibitor, single point] | 
70 | CC(C)C(=O)Nc1ccc(C(=O)CN2C(=O)NC3(CCOc4ccccc43)C2=O)cc1 (stereo not given) | inconclusive: 29.1 µM [inhibitor, single point] | 

Source: PubChem BioAssay AID686979 (National Center for Advancing Translational Sciences (NCATS), 2013)
